According to PMC4336329 (PLoS ONE, 2015):
Among all 310,000 compounds or so, about 2,200 (0.71%) showed an effect of 50% or more. Effects have a minus sign here. Some of the results follow.

target: human ether-à-go-go-related gene (hERG) potassium channel (human, UniProt Q12809); assay: primary screen, population patch clamp on CHO cells stably expressing hERG
Sequence (Q12809 whole entry, looked up): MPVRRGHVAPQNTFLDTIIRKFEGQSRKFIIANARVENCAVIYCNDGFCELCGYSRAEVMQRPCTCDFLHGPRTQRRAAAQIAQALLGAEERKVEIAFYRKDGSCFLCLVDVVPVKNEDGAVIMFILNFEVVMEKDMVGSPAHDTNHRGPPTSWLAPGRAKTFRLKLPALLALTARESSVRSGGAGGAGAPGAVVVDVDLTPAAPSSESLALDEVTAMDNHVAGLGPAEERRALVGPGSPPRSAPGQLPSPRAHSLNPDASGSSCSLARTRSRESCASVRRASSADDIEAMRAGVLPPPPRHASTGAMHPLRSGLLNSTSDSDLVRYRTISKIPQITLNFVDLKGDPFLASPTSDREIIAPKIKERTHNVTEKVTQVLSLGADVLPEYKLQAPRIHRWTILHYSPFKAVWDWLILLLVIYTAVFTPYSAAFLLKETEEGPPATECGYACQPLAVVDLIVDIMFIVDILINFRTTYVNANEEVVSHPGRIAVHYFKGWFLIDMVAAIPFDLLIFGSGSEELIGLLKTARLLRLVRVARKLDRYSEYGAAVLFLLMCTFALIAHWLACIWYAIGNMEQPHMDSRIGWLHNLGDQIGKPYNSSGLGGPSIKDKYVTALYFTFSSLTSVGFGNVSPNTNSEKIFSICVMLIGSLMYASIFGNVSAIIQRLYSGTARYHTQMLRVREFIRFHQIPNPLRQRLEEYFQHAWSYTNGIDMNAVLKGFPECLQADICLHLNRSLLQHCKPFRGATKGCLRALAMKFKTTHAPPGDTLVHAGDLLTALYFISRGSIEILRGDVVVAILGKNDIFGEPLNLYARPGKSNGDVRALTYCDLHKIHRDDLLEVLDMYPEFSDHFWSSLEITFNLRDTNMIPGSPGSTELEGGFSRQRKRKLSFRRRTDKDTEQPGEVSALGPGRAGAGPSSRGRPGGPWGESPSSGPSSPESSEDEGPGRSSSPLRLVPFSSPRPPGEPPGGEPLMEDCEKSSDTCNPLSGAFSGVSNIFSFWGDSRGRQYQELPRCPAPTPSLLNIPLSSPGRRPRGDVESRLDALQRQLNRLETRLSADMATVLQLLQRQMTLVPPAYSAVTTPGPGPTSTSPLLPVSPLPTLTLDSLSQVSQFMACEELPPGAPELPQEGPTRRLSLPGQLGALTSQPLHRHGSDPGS

Row | SMILES | hERG current change (%, negative = inhibition) at 1uM [%]
1 | Cc1cc(C(=O)NC(=S)Nc2cccc(C(=O)O)c2C)ccc1[N+](=O)[O-] | 17.7
2 | COCCN(C(=O)COC(=O)COc1ccc(Cl)c(C)c1)c1c(N)n(Cc2ccccc2)c(=O)[nH]c1=O | 6.71
3 | COc1ccccc1NC(=O)Nc1ccc2[nH]c(=O)[nH]c2c1 | 12.1
4 | Cc1ccc(C(C)C)c(OCC(=O)NN=C2CCCCCCC2)c1 | 1.14
5 | CCC(C)OC(=O)c1c(N)n(Cc2cccs2)c2nc3ccccc3nc12 (centres unmarked) | 5.19
6 | O=[N+]([O-])c1ccc2c(c1)CNc1ccccc1O2 | 13.2
7 | COc1ccc(OCc2cc(C(=O)NCC(C)(C)N3CCOCC3)no2)c(Cl)c1 | 0.582
8 | O=c1c2ccccc2nc2n1CCO2 | 8.41
9 | COC(=O)c1cc(S(=O)(=O)NCC2CCN(Cc3ccc(C)cc3)CC2)cn1C | -16.9
10 | COC(=O)N(c1ccccc1)P1(=S)OCCO1 | 17.4
11 | CCCSc1ccc([C@@H]2[C@H]3C(=O)N(CC)C(=O)[C@H]3[C@]3(C(=O)OC)CCCN23)cc1.O=C(O)C(F)(F)F | 2.39
12 | COc1ccccc1S(=O)(=O)Cc1ccc(C(=O)N2CCN(c3ccccc3)CC2)o1 | -14.5
13 | CCCCNC(=S)NNC(=O)c1cccnc1 | 13.8
14 | CCOc1ccc(S(=O)(=O)N2CCN(C)CC2)c(C)c1C | 10.2
15 | Nc1ccccc1-[n+]1c(-c2ccccc2)cc(-c2ccccc2)cc1-c1ccccc1.[O-][Cl+3]([O-])([O-])[O-] | 0.0928
16 | O=C(Cc1c[nH]c2ccccc12)Nc1cccc(S(=O)(=O)N2CCCCC2)c1 | 3.12
17 | O=C1CCCN1c1ccc(S(=O)(=O)N2CCCCC2)cc1[N+](=O)[O-] | 10.9
18 | COc1cccc(C(=O)CC(C#N)c2ccc(F)cc2)c1 (centres unmarked) | 12.5
19 | CCCn1c(/N=C/c2cc(OC)ccc2O)nc2ccccc21 | 10.5

Row | SMILES | hERG current change (%, negative = inhibition) at 1uM [%]
20 | CSCCC(NC(=O)c1ccco1)C(=O)N1CCC(C(N)=O)CC1 (centres unmarked) | 9.55
21 | CC1(C)Cc2c(sc3ncn(N)c(=N)c23)CO1 | 13.1
22 | COCCOC(=O)c1c(C)oc2ccc(OC(=O)c3ccc4c(c3)OCO4)cc12 | 21.1
23 | C/C(=N\NC(=O)c1cccc(N2CCCC2=O)c1)c1ccc(N)cc1 | 22.4
24 | Cc1cccc(CN2CCCC(C(=O)c3ccc4c(c3)OCO4)C2)n1 (centres unmarked) | -16.8
25 | CN(C(=O)COC(=O)c1ccc(Cl)c(N)c1)c1ccccc1 | 9.13
26 | Cc1cccnc1NC(=O)C1CCC1 | 16.4
27 | COCCN(C(=O)CSc1n[nH]c(-c2ccc(OC)cc2)n1)c1c(N)n(Cc2ccccc2)c(=O)[nH]c1=O | 10.3
28 | Cc1ccc(S(=O)(=O)Cn2nnnc2C(CC(C)C)N2CCN(c3ccccc3)CC2)cc1 (centres unmarked) | 21.5
29 | CCc1ccccc1NC(=O)CN1CCN(C(=O)c2cccc(-n3cnnn3)c2)CC1 | -5.51
30 | O=[N+]([O-])c1cccc(CSc2nc3ccccc3[nH]2)c1 | -3.99
31 | CN(C)N1C(=O)CC(C)(c2ccc([N+](=O)[O-])cc2)C1=O (centres unmarked) | 6.35
32 | CCn1c(SCC(=O)Nc2ccc3c(c2)OCCO3)nnc1-c1cccnc1 | 15.8
33 | O=C(COC(=O)COc1ccc(Br)cc1)Nc1cccnc1Cl | 14.9
34 | Cn1c(N2CCN(c3ccccn3)CC2)nc2c1c(=O)n(Cc1ccccc1Cl)c(=O)n2C | 12.5
35 | O=C1NC(=O)C(CCc2ccncc2)(CCc2ccncc2)C(=O)N1Cc1ccc(F)cc1 | -78.2
36 | COc1cccc2cc(C(=O)N3CCc4ccccc4C3)c(=O)oc12 | 14.7
37 | O=C(C1CC(c2ccc(F)cc2)=NO1)N1CCCCC1 (centres unmarked) | 3.93
38 | COc1ccc2nc(NC3=NCCN3)sc2c1 | 10.9

Row | SMILES | hERG current change (%, negative = inhibition) at 1uM [%]
39 | COc1ccccc1OCc1n[nH]c(=S)n1Cc1ccccc1 | 14.8
40 | Nc1ccc(NC(=O)c2cccs2)cc1 | 16.9
41 | COc1ccc(CCNC(=O)CCC(=O)N2CCOc3ccccc32)cc1OC | -5.86
42 | CC(=O)Nc1cccc(C(=O)NC2CCCc3c2cnn3-c2ccc(C(C)(C)C)cc2)c1 (centres unmarked) | 13
43 | COc1ccc(Br)cc1/C=C(\C(=O)O)c1ccc(S(=O)(=O)N2CCCCC2)s1 | 5.43
44 | CC(C)c1ccccc1NC(=O)Nc1ccc(F)cc1F | 8.94
45 | CC(=O)N(CCc1ccccc1)Cc1cc2cc(C)ccc2[nH]c1=O | 4.22
46 | CC1CC1C(=O)NCCc1ccc(Cl)cc1 (centres unmarked) | 0.111
47 | COC(=O)c1ccc(C2CC(=O)Nc3cc(OC)c(OC)cc32)cc1 (centres unmarked) | 1.14
48 | O=C(CN1CCC(NC(=O)Nc2ccccc2)CC1)Nc1ccc([N+](=O)[O-])cc1 | -9.75
49 | O=C(Nc1sc(-c2ccccc2)cc1C(=O)O)c1ccccc1 | 14.5
50 | CC1C(OC(=O)CCC(=O)NC(C)(C)CO)O[C@H]2OC3(C)CC[C@H]4[C@H](C)CCC1C24OO3 (some centres unmarked) | 14.3
51 | CCCCCCC(=O)Oc1cccc(N2C(=O)C3CCCCC3C2=O)c1 (centres unmarked) | 11.8
52 | CCCCC/C=C\C[C@H](O)/C=C/c1cccc(C[C@H](O)CCCCO)n1 | 11.2
53 | O=C(CCN1C(=O)c2ccccc2C1=O)N1CCN(Cc2ccccc2)CC1 | 7.1
54 | CC(=O)NC(CC(=O)N(C)Cc1c(F)cccc1Cl)c1ccccc1 (centres unmarked) | 11.9
55 | O=C(COC(=O)CCCNC(=O)c1ccc(Cl)cc1)NC1CC1 | 13
56 | CNC(=O)c1[nH]cnc1C(=O)N[C@@H](CCCCNC(=O)OC(C)(C)C)C(=O)OC(C)(C)C | 13.6
